We go through 60 molecules from ChEMBL document CHEMBL1201862, “PubChem BioAssay data set” (2004).

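How tested: cells in 96-well plates exposed to compound for 48 hours at five concentrations. At the GI50, growth is halved.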 Calls of active or inactive are those of the source. No stated cut-off is given here; in the data, active = GI50 up to about 1.1 µM and inactive = higher.

This experiment has as its system NCI-H322M. As to the kind of experiment: NCI tumour cell line growth inhibition, 48 h.
`NS(=O)(=O)c1ccc(/N=N/c2ncccc2O)cc1`: the GI50 was inactive: > 100 µM. With `Cc1ncc([N+](=O)[O-])n1CCNC(=O)Cn1c([N+](=O)[O-])cnc1C`, the GI50 was inactive: > 100 µM. The figure for `NCC(O)CN.Oc1c(Cl)c(Cl)c(Cl)c(Cl)c1Cl` is inactive: 19.1 µM; for `N=C(N)SCc1cccc2c(=O)cc(-c3ccccc3)oc12` it is inactive: 11.3 µM; for `O=C(OCC12CC3CC(CC(C3)C1)C2)c1ccc(NCc2cc(O)ccc2O)cc1` it is inactive: 7.64 µM. In the case of `O=C(O)CCC(=O)Nc1ccc2ccccc2c1` it was inactive: > 100 µM. In the case of `CC1C(=O)C(C)C(c2ccccc2)N(N=O)C1c1ccccc1` (stereo not given) it was inactive: > 434 µM; in that of `O=C1CCN/C(=N\C(=O)C(F)(F)F)N1CCc1c[nH]c2ccccc12`, inactive: > 100 µM; in that of `COC(=O)c1ccccc1/C=C1\Cc2ccc(C)c(C)c2C1=O`, inactive: > 100 µM. Take `COC(=O)C1=C(c2ccc3c(c2)OCO3)O[C@H](c2cc(OC)c(OC)c(OC)c2)[C@H]1COC(C)=O`: the GI50 is inactive: 6.55 µM. As to `Clc1ccc(C2=NOC(C3CCCCC3)C2)cc1` (stereo not given), the GI50 was inactive: > 100 µM.

`Cc1[nH]c2ncn(Nc3ccccc3)c(=N)c2c1Cc1ccccc1`: the GI50 was inactive: > 38.1 µM. In the case of `CC(C)(C)c1cc(C(=O)/C=C/C=C/c2ccccc2)cc(C(C)(C)C)c1O` it was inactive: 40.6 µM. In the case of `COc1nc2c(c(=O)[nH]1)N=C(c1ccc([N+](=O)[O-])cc1)CC(c1ccccc1)N2` (stereo not given) it was inactive: > 100 µM; in that of `C=CCN(c1cc(OC)c(NC(C)=O)cc1[N+](=O)[O-])S(C)(=O)=O`, inactive: > 100 µM; in that of `CN(C)CC/[N+]([O-])=C(/c1ccccc1)C12CC3CC(CC(C3)C1)C2`, inactive: 16.8 µM. In the case of `CCOC(=O)C(=CNC(=S)Nc1c(CC)cccc1CC)C(=O)OCC` it was inactive: > 100 µM; in that of `Cc1ccc(/C=N/Nc2ncccn2)s1`, inactive: > 100 µM. `CCCCNC(=O)c1cc2c(cc1Cl)Sc1nccn1S2(=O)=O`: the GI50 was inactive: 91.4 µM. `CCOc1ccc(NC(=O)CC2C(=O)Nc3ccccc3[S+]2[O-])cc1` (stereo not given): the GI50 was inactive: > 100 µM. The figure for `O=C1c2ccccc2C(=O)N1C/C=N/NS(=O)(=O)c1ccc(F)cc1` is inactive: > 100 µM; for `CC[C@H](CCCC[C@H]1CC[C@@H]2CC(=O)C[C@H]12)OC` it is inactive: > 100 µM; for `Cc1ccc(C(=O)CCl)o1` it is inactive: > 10 µM. In the case of `CO[C@@H]1C[C@H]2[C@@H]3CC[C@H]([C@H](C)COC(C)=O)[C@@]3(C)CC[C@@H]2[C@@]2(C)CC[C@H]3C[C@]312` it was inactive: > 100 µM; in that of `CC(=O)OC(Cc1cc(C=C(C(F)(F)F)C(F)(F)F)cc(C)n1)(C(F)(F)F)C(F)(F)F`, inactive: 2 µM; in that of `COC(=O)Cc1cccc2c(=O)c(S(=O)(=O)NC(=O)Nc3ccc(Cl)cc3)c(-c3ccccc3)oc12`, inactive: 38.4 µM.

Take `COP12(OC)NC(=O)OC1(C(F)(F)F)c1ccccc1O2` (stereo not given): the GI50 is inactive: > 100 µM. In the case of `COC(=O)C12CCC(C)(C)CC1C1=CCC3C4(C)CC(O)C(O)C(C)(C(=O)OC)C4CCC3(C)C1(CO)CC2` (stereo not given) it was inactive: 17.6 µM; in that of `CCC(CO)COC(=O)/C=C/C(=O)OCC(CC)CO` (stereo not given), inactive: > 100 µM; in that of `COc1ccc(/C=C2\N=C(c3ccccc3)OC2=O)c(OCc2ccccc2)c1`, inactive: 25.3 µM. `O=C(/C=C\c1ccc([N+](=O)[O-])cc1)c1ccccc(=O)c1O`: the GI50 is inactive: 1.32 µM. In the case of `CC1(CCCO)CCCCCC(C)(CCCO)C1=O` (stereo not given), the GI50 was inactive: > 100 µM.

Consider `O=C(O)c1ccccc1C1CCCc2c1[nH]c1ccccc21` (stereo not given), for which the GI50 was inactive: > 100 µM. Consider `CC(C)c1nc2cc(C(F)(F)F)ccc2[nH]c1=O`, for which the GI50 was inactive: > 100 µM. The figure for `O=C(CSCC(=O)N/N=C/c1ccc2c(c1)OCO2)N/N=C/c1ccc2c(c1)OCO2` is inactive: > 100 µM; for `COc1ccc(-c2c(C#N)c(-c3ccccc3)n(NS(=O)(=O)c3ccccc3)c(=O)c2C#N)cc1` it is inactive: > 100 µM. In the case of `CCCCCCNCCc1c[nH]cn1` it was inactive: > 100 µM; in that of `COc1ccc(-n2c(=O)n(C)c(=O)n2-c2c(C)c(C)c(C)c(C)c2C)cc1`, inactive: > 100 µM; in that of `O=C(NCCCN(CCCCN(CCCNC(=O)C(F)(F)F)CCCc1ccccc1)CCCc1ccccc1)C(F)(F)F`, inactive: 1.89 µM. On to `COC(=O)C1=C(C(=O)OC)C2CCC1CC2=O` (stereo not given), for which the GI50 is inactive: > 100 µM.

In the case of `NN/C(=N\S(=O)(=O)c1ccc(-c2ccccn2)s1)Nc1ccc(Cl)cc1`, the GI50 was inactive: > 100 µM.

Regarding `O=C(O)CCC(NC(=O)c1ccc(CNc2nc3cc(C(F)(F)F)ccc3nc2C(=O)O)cc1)C(=O)O` (stereo not given), the GI50 is inactive: > 100 µM. Take `Cc1cc(OCC(=O)N/N=C/C(Br)=C/c2ccccc2)nc(SCC(=O)N/N=C/C(Br)=C/c2ccccc2)n1`: the GI50 was inactive: > 100 µM. For `CCCCC(Sc1cc(Cl)c(C)cc1S(=O)(=O)Nc1nc(N)n[nH]1)C(=O)OC` (stereo not given), the GI50 is inactive: > 10 µM. In the case of `O=C(CCc1n[nH]c(=S)o1)Nc1ccc(Cl)cc1Cl` it was inactive: > 100 µM; in that of `Nc1nc2c(ncn2C2C=CC(COS(N)(=O)=O)C2)c(=O)[nH]1` (stereo not given), inactive: > 100 µM; in that of `CC1=C(C(=O)Nc2ccccc2C)C(c2ccccc2)C(C(=O)Nc2ccccc2C)=C(C)N1`, inactive: > 100 µM. In the case of `O=C(Nc1cc2c(=O)[nH]c3ccccc3c2oc1=O)c1cnccn1` it was inactive: > 100 µM. `C#CCCCOc1ncccn1`: the GI50 is inactive: > 100 µM. For the molecule `N#CC12CCC1C1CCCCC12N1CCSCC1` (stereo not given), the GI50 is inactive: > 100 µM. In the case of `O=C1CCCC1NC(=O)C(F)(F)F` (stereo not given) it was inactive: > 100 µM; in that of `Cn1c(=O)c2sc3c4sc5c(=O)n(C)c6ccccc6c5c4sc3c2c2ccccc21`, inactive: > 100 µM.

Take `O=C1C=C/C(=N/c2cccc3c(/N=C4/C=CC(=O)O4)cccc23)O1`: the GI50 was inactive: > 100 µM. With `COC(=O)Cc1c2n(c3ccccc13)C(=O)N1c3ccccc3C(CC(=O)OC)C21` (stereo not given), the GI50 was inactive: > 100 µM.

Regarding `CC(C)OP(=O)(OC(C)C)/C(=N/Nc1ccc([N+](=O)[O-])cc1)NCCN/C(=N\Nc1ccc([N+](=O)[O-])cc1)P(=O)(OC(C)C)OC(C)C`, the GI50 is inactive: > 100 µM. The figure for `C=C1C(=O)CCC1C(=O)O` (stereo not given) is inactive: > 100 µM; for `CC(=O)OCC1OC(OC2CC3C(C)(C)C(O)CC[C@]3(C)C3CCC45CC4(CC[C@H]5C(C)CC(O)C4OC4(C)C)[C@]23C)C(O)C(O)C1O` (stereo not given in full) it is inactive: 7.08 µM; for `CC1CCC2(OCCO2)[C@]2(C)CC(O)C(=O)C=C12` (stereo not given in full) it is inactive: > 100 µM. `C/C(=N\NC(=S)N1CCCCCC1)c1ccccn1`: the GI50 was active: 0.0024 µM.

Take `CC(=O)OC1CC2CC(=O)CC1N2C` (stereo not given): the GI50 is inactive: > 100 µM.
